From US7592316B2, “Peptides as NS3-serine protease inhibitors of hepatitis C virus” (Schering Corporation, priority 2000, dated 2009)

biological target: HCV NS3/NS4A protease (strain 1a) (Hepatitis C virus genotype 1a, UniProt P27958); test: biochemical; settings: Compounds prepared by Solid Phase Synthesis, Table 3; read-out: Ki* CLASS

Compound	Ki [µM]
CCCC(NC(=O)[C@@H]1C[C@@H](OCc2ccccc2)CN1C(=O)C(NC(=O)OCC(C)C)C(C)C)C(=O)C(=O)NCC(=O)NC(CCCC(=O)O)C(N)=O (stereo partly drawn) (Isobutyloxycarbonyl-[ξV][Hyp](Bn)[X2]G[ξAad]-NH2)	> 1
CCCCC(NC(=O)CNC(=O)C(=O)C(CCC)NC(=O)[C@@H]1C[C@@H](OCc2ccccc2)CN1C(=O)C(NC(=O)CC1CCCCC1)C1CCCCC1)C(N)=O (stereo partly drawn) (Cyclohexylacetyl-[ξChg][Hyp](Bn)[X2]G[ξNle]-NH2)	0.101 to 1
CCCC(NC(=O)[C@@H]1C[C@@H](OCC(=O)O)CN1C(=O)C(NC(=O)OCC(C)C)C(C)C)C(=O)C(=O)NCC(=O)NC(CC(C)C)C(N)=O (stereo partly drawn) (Isobutyloxycarbonyl-[ξV][Hyp](Carboxymethyl)[X2]G[ξL]-NH2)	> 1

same assay, conditions: HCV protease continuous assay results, Table 1; read-out: Ki* Range

Compound	Ki [µM]
CCCC(NC(=O)[C@@H]1C[C@@H](c2ccccc2)CN1C(=O)[C@@H](NC(=O)OC(C)(C)C)C1CCCCC1)C(=O)C(=O)NCC(=O)NC(C(=O)O)C1CCCCC1 (stereo partly drawn) [Example 80] (Boc-[Chg][Pro(trans-4-Ph)][X2]G[ξChg]-OH)	0.001 to 0.1
CCCC(NC(=O)[C@@H]1CCCN1C(=O)[C@@H](NC(=O)OCC(C)C)C(C)C)C(=O)C(=O)NCC(=O)N[C@@H](CC(=O)OC)C(=O)OC (stereo partly drawn) [Example 11] (Isobutyloxycarbonyl-VP[X2]GD(OMe)-OMe)	> 1
CCCC(NC(=O)[C@@H]1CCCN1C(=O)[C@@H](NC(=O)OCC(C)C)C(C)C)C(=O)C(=O)NCC(=O)N1CCCC(C(=O)OCC)C1 (stereo partly drawn) [Example 16]	> 1
CCCC(NC(=O)[C@@H]1CC2(CN1C(=O)[C@@H](NC(=O)OCC(C)C)[C@@H](C)OCc1ccccc1-c1ccccc1)SCCCS2)C(=O)C(=O)NCC(=O)N[C@H](C(=O)O)c1ccccc1 (stereo partly drawn) [Example 121] (Isobutyloxycarbonyl-T(X13)[Pro(4,4-S(CH2)3S)][X2]G[Phg]-OH)	0.101 to 1
CCCC(NC(=O)[C@@H]1CC2(CN1C(=O)[C@@H](NC(=O)[C@H](CC(C)C)NC(C)=O)C1CCCCC1)SCCCS2)C(=O)C(=O)NCC(=O)NC(C(=O)OC(C)(C)C)c1ccccc1 (stereo partly drawn) [Example 116] (Ac-L[Chg][Pro(4,4-S(CH2)3S)][X2]G[ξPhg]-OtBu)	0.001 to 0.1

same assay, conditions: Table 4; HCV NS3/NS4A protease, spectrophotometric assay, 30° C., pH 6.5; read-out: Ki* Range

Ki [µM]	Compound
0.001 to 0.1	CCC[C@@H](NC(=O)[C@@H]1CC(C)(C)CN1C(=O)[C@@H](NC(=O)OCC(C)C)C1CCC(C)(C)CC1)C(=O)C(=O)NCC(=O)N[C@H](C(=O)N(C)C)c1ccccc1

same assay, conditions: Table 5; HCV NS3/NS4A protease, 30° C., pH 6.5; read-out: Ki* Range

Ki [µM]	Compound
0.001 to 0.1	C=CCCC(NC(=O)[C@@H]1[C@H]2[C@@H](CN1C(=O)[C@@H](NC(=O)OC(C)(C)C)C1CCCCC1)C2(C)C)C(=O)C(=O)NCCC(=O)OC(C)(C)C=C (stereo partly drawn)
0.001 to 0.1	CCCC(NC(=O)[C@@H]1[C@@H]2[C@H](CN1C(=O)[C@@H](NC(=O)OC1CCCC1C)C(C)(C)C)C2(C)C)C(=O)C(=O)NCC(=O)NCc1ccccc1 (stereo partly drawn)

same assay, conditions: Table 5; HCV NS3/NS4A protease, spectrophotometric assay, 30° C., pH 6.5; read-out: Ki* Range

Ki [µM]	Compound
0.001 to 0.1	CC1(C)[C@H]2[C@@H](C(=O)NC(CC3CC3)C(=O)C(N)=O)N(C(=O)[C@@H](NC(=O)NC34CC5CC(CC(C5)C3)C4)C3Cc4ccccc4C3)C[C@H]21 (stereo partly drawn)
0.101 to 1	C=CCCC(NC(=O)C1[C@H]2[C@@H](CN1C(=O)[C@@H](NC(=O)OC(C)(C)C)C(C)(C)C)C2(C)C)C(=O)C(=O)NCC#N (stereo partly drawn)
> 1	C=CCNC(=O)C(=O)C(CCC)NC(=O)[C@@H]1[C@H]2[C@@H](CN1C(=O)[C@@H](NC(=O)Cc1ccccc1)C1Cc3ccccc3C1)C2(C)C (stereo partly drawn)

same assay, conditions: Table 6; HCV NS3/NS4A protease, 30° C., pH 6.5; read-out: Ki*

Ki [µM]	Compound
0.101 to 1	COC(=O)[C@@H](NC(=O)N[C@H](C(=O)N1C[C@H]2[C@@H]([C@H]1C(=O)NC(CC1CCC1)C(=O)C(N)=O)C2(Cl)Cl)C(C)(C)C)C(C)(C)O (stereo partly drawn)
0.101 to 1	CC(C)(C)OC(=O)N[C@H](C(=O)N1C[C@H]2[C@@H]([C@H]1C(=O)NC(CC1CCC1)C(=O)C(N)=O)C2(C)C)C(C)(C)O (stereo partly drawn)

Continued, compound first:

Compound	Ki [µM]
CN(C)C(=O)[C@@H](NC(=O)CNC(=O)C(=O)[C@@H](CC1CCC1)NC(=O)[C@@H]1[C@H]2OC(C)(C)O[C@H]2CN1C(=O)[C@@H](NC(=O)NC(C)(C)C)C(C)(C)C)c1ccccc1	0.101 to 1
CN(C)C(=O)[C@@H](NC(=O)CNC(=O)C(=O)C(CCC(F)F)NC(=O)[C@@H]1[C@H]2CCC[C@H]2CN1C(=O)[C@@H](NC(=O)OC(C)(C)C)C1CCCCC1)c1ccccc1 (stereo partly drawn) (Boc-[Chg][Pro(3S,4R-(CH2)3)][X81]G[Phg]-NMe2)	0.001 to 0.1

*1 amine or outer side, *2 acyl side, *3 side chain or, on linkers, in order; H or OH if unused. Where a SMILES comes first, the peptide text is derived from it. [ ]: non-standard residue; d: D form. The star is where a group is joined. ξ: configuration not given here. Pro(3S,4R-(CH2)3) = O=C(O)[C@H]1NC[C@@H]2CCC[C@@H]21; Pro(trans-4-Ph) = O=C(O)[C@@H]1C[C@@H](c2ccccc2)CN1; Pro(4,4-S(CH2)3S) = O=C(O)[C@@H]1CC2(CN1)SCCCS2; X81 = O=C(C(=O)[*:2])C(CCC(F)F)N[*:1]; Isobutyloxycarbonyl = CC(C)COC(=O)*; Cyclohexylacetyl = O=C(CC1CCCCC1)*; Hyp = O=C(O)[C@@H]1C[C@@H](O)CN1; X2 = CCCC(N[*:1])C(=O)C(=O)[*:2]; Chg = N[C@H](C(=O)O)C1CCCCC1; Phg = N[C@H](C(=O)O)c1ccccc1; X13 = c1ccc(-c2ccccc2C*)cc1; ξAad = NC(CCCC(=O)O)C(=O)O; ξChg = NC(C(=O)O)C1CCCCC1; ξPhg = NC(C(=O)O)c1ccccc1; Carboxymethyl = O=C(O)C*; Boc = CC(C)(C)OC(=O)*; ξL = CC(C)CC(N)C(=O)O; ξNle = CCCCC(N)C(=O)O; ξV = CC(C)C(N)C(=O)O; Bn = c1ccc(C*)cc1; OtBu = CC(C)(C)O*
